In the supplement of paper PMC8728848:
The other results are listed elsewhere or left out.

Legend:
Test in all cases: glycan array binding signal (z-score within array); higher = stronger binding
Settings in all cases: glycan notation: IUPAC condensed, linker removed
Neu5Ac(a2-8)Neu5Ac = molecular target: Neu5Ac(a2-8)Neu5Ac
Method in brief: (§1)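 The binding signal is a Z-score computed within each array. Data were drawn from 3228 arrays in the Consortium for Functional Glycomics database, restricted to those with a known protein sequence. Scores were averaged over arrays of the same protein sequence at different concentrations or buffers, and over linkers, and negative values can be taken as non-binding.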

[1] = molecular target: Neu5Ac(a2-8)Neu5Ac(a2-3)Gal(b1-3)GalNAc(b1-4)[Neu5Ac(a2-3)]Gal(b1-4)Glc
Method in brief: as §1

[2] = molecular target: Neu5Ac(a2-8)Neu5Ac(a2-3)Gal(b1-3)GalNAc(b1-4)[Neu5Ac(a2-8)Neu5Ac(a2-3)]Gal(b1-4)Glc
Method in brief: as §1

[3] = molecular target: Neu5Ac(a2-8)Neu5Ac(a2-3)Gal(b1-4)Glc
Method in brief: as §1

[4] = molecular target: Neu5Ac(a2-8)Neu5Ac(a2-3)Gal(b1-4)GlcNAc
Method in brief: as §1

[5] = molecular target: Neu5Ac(a2-8)Neu5Ac(a2-3)[Gal(b1-3)GalNAc(b1-4)]Gal(b1-4)Glc
Method in brief: as §1

[6] = molecular target: Neu5Ac(a2-8)Neu5Ac(a2-3)[GalNAc(b1-4)]Gal(b1-4)Glc
Method in brief: as §1

[7] = molecular target: Neu5Ac(a2-8)Neu5Ac(a2-8)Neu5Ac
Method in brief: as §1

[8] = molecular target: Neu5Ac(a2-8)Neu5Ac(a2-8)Neu5Ac(a2-3)Gal(b1-4)Glc
Method in brief: as §1

[9] = molecular target: Neu5Ac(a2-8)Neu5Ac(a2-8)Neu5Ac(a2-3)[Gal(b1-3)GalNAc(b1-4)]Gal(b1-4)Glc
Method in brief: as §1

[10] = molecular target: Neu5Ac(a2-8)Neu5Ac(a2-8)Neu5Ac(a2-3)[GalNAc(b1-4)]Gal(b1-4)Glc
Method in brief: as §1

[11] = molecular target: Neu5Ac(a2-8)Neu5Ac(a2-8)Neu5Ac(a2-8)Neu5Ac(a2-3)[GalNAc(b1-4)]Gal(b1-4)Glc
Method in brief: as §1

[12] = molecular target: Neu5Ac(a2-8)Neu5Gc(a2-3)Gal(b1-4)GlcNAc
Method in brief: as §1

[13] = molecular target: Neu5Ac(b2-6)Gal(b1-4)GlcNAc
Method in brief: as §1

Neu5Ac(b2-6)GalNAc = molecular target: Neu5Ac(b2-6)GalNAc
Method in brief: as §1

[14] = molecular target: Neu5Ac9Ac(a2-3)Gal(b1-3)GlcNAc
Method in brief: as §1

[15] = molecular target: Neu5Ac9Ac(a2-3)Gal(b1-4)GlcNAc
Method in brief: as §1

[16] = molecular target: Neu5Ac9Ac(a2-6)Gal(b1-4)GlcNAc
Method in brief: as §1

[17] = molecular target: Neu5Gc(a2-3)Gal(b1-3)GlcNAc
Method in brief: as §1

[18] = molecular target: Neu5Gc(a2-3)Gal(b1-3)[Fuc(a1-4)]GlcNAc
Method in brief: as §1

Neu5Gc(a2-3)Gal(b1-4)Glc = molecular target: Neu5Gc(a2-3)Gal(b1-4)Glc
Method in brief: as §1

[19] = molecular target: Neu5Gc(a2-3)Gal(b1-4)GlcNAc
Method in brief: as §1

[20] = molecular target: Neu5Gc(a2-3)Gal(b1-4)GlcNAc(b1-3)Gal(b1-4)GlcNAc(b1-2)Man(a1-3)[Neu5Gc(a2-3)Gal(b1-4)GlcNAc(b1-3)Gal(b1-4)GlcNAc(b1-2)Man(a1-6)]Man(b1-4)GlcNAc(b1-4)GlcNAc
Method in brief: as §1

[21] = molecular target: Neu5Gc(a2-3)Gal(b1-4)[Fuc(a1-3)]GlcNAc
Method in brief: as §1

[22] = molecular target: Neu5Gc(a2-6)Gal(b1-4)GlcNAc
Method in brief: as §1

Neu5Gc(a2-6)GalNAc = molecular target: Neu5Gc(a2-6)GalNAc
Method in brief: as §1

[23] = molecular target: Neu5Gc(a2-8)Neu5Ac(a2-3)Gal(b1-4)GlcNAc
Method in brief: as §1

[24] = molecular target: Neu5Gc(a2-8)Neu5Gc(a2-3)Gal(b1-4)GlcNAc
Method in brief: as §1

[25] = molecular target: Neu5Gc(a2-8)Neu5Gc(a2-3)Gal(b1-4)GlcNAc(b1-3)Gal(b1-4)GlcNAc
Method in brief: as §1

[26] = molecular target: Neu5Gc(a2-8)Neu5Gc(a2-6)Gal(b1-4)GlcNAc
Method in brief: as §1

[27] = molecular target: Neu5Gc(b2-6)Gal(b1-4)GlcNAc
Method in brief: as §1

B1: PX9961A-pdi-456-24-456 (Parabacteroides distasonis) (protein)
chain: KTSSTQLPTIDAISSVADLTNAVNGVYEQQATEVGSYGAEFTLLADLRSGDFQSISTVNHAGPMYRYQTGKNDEMVYSFYKLFYNSLARLNNVLAAAENLEGADVDILKGELYAMRALYHFDLARVFAKLPSTTDMNDLGIVLSTEVYPTDYIGTRATLQQTYDQILKDIETALPLLSKDKQTGHINYWGALAIRARAYLYLEKNKEALADCKEIIASSPYKLYTRDEYIGAWDKEGTNEAIFEILVTPNYNAQRNSIGYFTHASGYGECAATESFLEELAKHPGDIRTELFAKETDNGYDGTYPQKYKGRDGQIYVNNPKVVRLSEVYLIAAEAALKAGDTSAAAGYMNTLRKNRIENYTDVASITLDDILLERRLELFTEGHTAWDAWRNGKSVNNKFVGEVKPGDYRTIMAIPIGEITVSRGQLIQNPGY
glycan array binding signal (z-score) (Neu5Ac(a2-8)Neu5Ac): -0.131
glycan array binding signal (z-score) [1]: -0.315
glycan array binding signal (z-score) [2]: 0.512
glycan array binding signal (z-score) [3]: -0.672
glycan array binding signal (z-score) [4]: -0.385
glycan array binding signal (z-score) [5]: -0.231
glycan array binding signal (z-score) [6]: 0.053
glycan array binding signal (z-score) [7]: -0.277
glycan array binding signal (z-score) [8]: -0.325
glycan array binding signal (z-score) [9]: 0.291
glycan array binding signal (z-score) [10]: -0.415
glycan array binding signal (z-score) [11]: 0.361
glycan array binding signal (z-score) [12]: -0.545
glycan array binding signal (z-score) [13]: -0.387
glycan array binding signal (z-score) (Neu5Ac(b2-6)GalNAc): -0.233
glycan array binding signal (z-score) [14]: -0.431
glycan array binding signal (z-score) [15]: -0.069
glycan array binding signal (z-score) [16]: 0.088
glycan array binding signal (z-score) [17]: -0.334
glycan array binding signal (z-score) [18]: -0.042
glycan array binding signal (z-score) (Neu5Gc(a2-3)Gal(b1-4)Glc): 0.466
glycan array binding signal (z-score) [19]: -0.47
glycan array binding signal (z-score) [20]: -0.097
glycan array binding signal (z-score) [21]: 0.133
glycan array binding signal (z-score) [22]: 0.031
glycan array binding signal (z-score) (Neu5Gc(a2-6)GalNAc): -0.263
glycan array binding signal (z-score) [23]: -0.422
glycan array binding signal (z-score) [24]: -0.3
glycan array binding signal (z-score) [25]: -0.373
glycan array binding signal (z-score) [26]: -0.464
glycan array binding signal (z-score) [27]: 0.275
